Assay results reported in the supplement of paper PMC12230231.
± gives the standard deviation of the averaged measurements. Restriction of a single-cycle SIVsab GFP reporter by TRIM5α v1-loop variants in CRFK cells. Human variants: read share among cells still uninfected after two challenges over input, higher = gained restriction. Rhesus variants: share among infected cells over input, higher = lost restriction. Reporter dose not given per row. No active / inactive call per row; the paper calls a change when both replicates lie above its controls (mean + 2 SD of stop or wild-type variants, or the top frameshift score). Residues outside the varied loop are taken from Swiss-Prot. The paper reads the human single-substitution scores as noise; they and the rhesus combinations repeat poorly (rank correlation 0.3 to 0.4), indel scores repeat only for the top variants, rhesus substitutions well (0.9).

Test system: SIVsab (simian immunodeficiency virus of sabaeus monkeys), single-cycle GFP reporter, in CRFK cells
Assay: enrichment among uninfected cells over input (fold); higher = stronger restriction
Settings: library: human / rhesus combinations
Experimental: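 Pools of CRFK cells expressing variants of the TRIM5α v1 loop were challenged with the single-cycle reporter, sorted by GFP and sequenced; mean of two replicates.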

| Sequence | enrichment |
| --- | --- |
| MASGILVNVKEEVTCPICLELLTQPLSLDCGHSFCQACLTANHKKSMLDKGESSCPVCRISYQPENIRPNRHVANIVEKLREVKLSPEGQKVDHCARHGEKLLLFCQEDGKVICWLCERSQEHRGHHTFLTEEVAREYQVKLQAALEMLRQKQQEAEELEADIREEKASWKTQIQYDKTNVLADFEQLRDILDWEESNELQNLEKEEEDILKSLTNSETEMVQQTQSLRELISDLEHRLQGSVMELLQGVDGVIKRTENVTLKKPETFPKNQRRVFRAPDLKGMLEVFRELTDVRRYWVDVTVAPNNISCAVISEDKRQVSSPKPQIIYQAPGTLYTFQSLVNFNYCTGILGSQSITSGKHYWEVDVSKKTAWILGVCAGFQPDAMCNIEKNENYQPKYGYWVIGLEEGVKCSAFQDSSFHTPSVPFIVPLSVIICPDRVGVFLDYEACTVSFFNITNHGFLIYKFSHCSFSQPVFPYLNPRKCGVPMTLCSPSS [human TRIM5α, 330-340 = QAPGTLYTFQSLV] | 0.133 ± 0.18 |
| MASGILVNVKEEVTCPICLELLTQPLSLDCGHSFCQACLTANHKKSMLDKGESSCPVCRISYQPENIRPNRHVANIVEKLREVKLSPEGQKVDHCARHGEKLLLFCQEDGKVICWLCERSQEHRGHHTFLTEEVAREYQVKLQAALEMLRQKQQEAEELEADIREEKASWKTQIQYDKTNVLADFEQLRDILDWEESNELQNLEKEEEDILKSLTNSETEMVQQTQSLRELISDLEHRLQGSVMELLQGVDGVIKRTENVTLKKPETFPKNQRRVFRAPDLKGMLEVFRELTDVRRYWVDVTVAPNNISCAVISEDKRQVSSPKPQIIYGARGTRYTFPSLTNFNYCTGILGSQSITSGKHYWEVDVSKKTAWILGVCAGFQPDAMCNIEKNENYQPKYGYWVIGLEEGVKCSAFQDSSFHTPSVPFIVPLSVIICPDRVGVFLDYEACTVSFFNITNHGFLIYKFSHCSFSQPVFPYLNPRKCGVPMTLCSPSS [human TRIM5α, 330-340 = GARGTRYTFPSLT] | 0.225 ± 0.22 |

Same assay, conditions: library: insertions and deletions

| Sequence | enrichment |
| --- | --- |
| MASGILVNVKEEVTCPICLELLTQPLSLDCGHSFCQACLTANHKKSMLDKGESSCPVCRISYQPENIRPNRHVANIVEKLREVKLSPEGQKVDHCARHGEKLLLFCQEDGKVICWLCERSQEHRGHHTFLTEEVAREYQVKLQAALEMLRQKQQEAEELEADIREEKASWKTQIQYDKTNVLADFEQLRDILDWEESNELQNLEKEEEDILKSLTNSETEMVQQTQSLRELISDLEHRLQGSVMELLQGVDGVIKRTENVTLKKPETFPKNQRRVFRAPDLKGMLEVFRELTDVRRYWVDVTVAPNNISCAVISEDKRQVSSPKPQIIYGARGTRYQTFVFNYCTGILGSQSITSGKHYWEVDVSKKTAWILGVCAGFQPDAMCNIEKNENYQPKYGYWVIGLEEGVKCSAFQDSSFHTPSVPFIVPLSVIICPDRVGVFLDYEACTVSFFNITNHGFLIYKFSHCSFSQPVFPYLNPRKCGVPMTLCSPSS [human TRIM5α, 1-codon deletion at 341] | 0.254 ± 0.011 |
| MASGILVNVKEEVTCPICLELLTQPLSLDCGHSFCQACLTANHKKSMLDKGESSCPVCRISYQPENIRPNRHVANIVEKLREVKLSPEGQKVDHCARHGEKLLLFCQEDGKVICWLCERSQEHRGHHTFLTEEVAREYQVKLQAALEMLRQKQQEAEELEADIREEKASWKTQIQYDKTNVLADFEQLRDILDWEESNELQNLEKEEEDILKSLTNSETEMVQQTQSLRELISDLEHRLQGSVMELLQGVDGVIKRTENVTLKKPETFPKNQRRVFRAPDLKGMLEVFRELTDVRRYWVDVTVAPNNISCAVISEDKRQVSSPKPQIIYGRGTRYQTFVNFNYCTGILGSQSITSGKHYWEVDVSKKTAWILGVCAGFQPDAMCNIEKNENYQPKYGYWVIGLEEGVKCSAFQDSSFHTPSVPFIVPLSVIICPDRVGVFLDYEACTVSFFNITNHGFLIYKFSHCSFSQPVFPYLNPRKCGVPMTLCSPSS [human TRIM5α, 1-codon deletion at 331] | 1.22 ± 0.82 |
| MASGILVNVKEEVTCPICLELLTQPLSLDCGHSFCQACLTANHKKSMLDKGESSCPVCRISYQPENIRPNRHVANIVEKLREVKLSPEGQKVDHCARHGEKLLLFCQEDGKVICWLCERSQEHRGHHTFLTEEVAREYQVKLQAALEMLRQKQQEAEELEADIREEKASWKTQIQYDKTNVLADFEQLRDILDWEESNELQNLEKEEEDILKSLTNSETEMVQQTQSLRELISDLEHRLQGSVMELLQGVDGVIKRTENVTLKKPETFPKNQRRVFRAPDLKGMLEVFRELTDVRRYWVDVTVAPNNISCAVISEDKRQVSSPKPQIIYGARGTRYQTFVNFNLGSQSITSGKHYWEVDVSKKTAWILGVCAGFQPDAMCNIEKNENYQPKYGYWVIGLEEGVKCSAFQDSSFHTPSVPFIVPLSVIICPDRVGVFLDYEACTVSFFNITNHGFLIYKFSHCSFSQPVFPYLNPRKCGVPMTLCSPSS [human TRIM5α, 5-codon deletion at 344] | 1.64 ± 0.7 |
| MASGILVNVKEEVTCPICLELLTQPLSLDCGHSFCQACLTANHKKSMLDKGESSCPVCRISYQPENIRPNRHVANIVEKLREVKLSPEGQKVDHCARHGEKLLLFCQEDGKVICWLCERSQEHRGHHTFLTEEVAREYQVKLQAALEMLRQKQQEAEELEADIREEKASWKTQIQYDKTNVLADFEQLRDILDWEESNELQNLEKEEEDILKSLTNSETEMVQQTQSLRELISDLEHRLQGSVMELLQGVDGVIKRTENVTLKKPETFPKNQRRVFRAPDLKGMLEVFRELTDVRRYWVDVTVAPNNISCAVISEDKRQVSSPKGTRYQTFVNFNYCTGILGSQSITSGKHYWEVDVSKKTAWILGVCAGFQPDAMCNIEKNENYQPKYGYWVIGLEEGVKCSAFQDSSFHTPSVPFIVPLSVIICPDRVGVFLDYEACTVSFFNITNHGFLIYKFSHCSFSQPVFPYLNPRKCGVPMTLCSPSS [human TRIM5α, 8-codon deletion at 325] | 0.649 ± 0.44 |
| MASGILVNVKEEVTCPICLELLTQPLSLDCGHSFCQACLTANHKKSMLDKGESSCPVCRISYQPENIRPNRHVANIVEKLREVKLSPEGQKVDHCARHGEKLLLFCQEDGKVICWLCERSQEHRGHHTFLTEEVAREYQVKLQAALEMLRQKQQEAEELEADIREEKASWKTQIQYDKTNVLADFEQLRDILDWEESNELQNLEKEEEDILKSLTNSETEMVQQTQSLRELISDLEHRLQGSVMELLQGVDGVIKRTENVTLKKPETFPKNQRRVFRAPDLKGMLEVFRELTDVRRYWVDVTVAPNNISCAVISEDKRQVSSPKPQIIYGARGTRQTFVNFNYCTGILGSQSITSGKHYWEVDVSKKTAWILGVCAGFQPDAMCNIEKNENYQPKYGYWVIGLEEGVKCSAFQDSSFHTPSVPFIVPLSVIICPDRVGVFLDYEACTVSFFNITNHGFLIYKFSHCSFSQPVFPYLNPRKCGVPMTLCSPSS [human TRIM5α, 1-codon deletion at 336] | 0.463 ± 0.21 |
| MASGILVNVKEEVTCPICLELLTQPLSLDCGHSFCQACLTANHKKSMLDKGESSCPVCRISYQPENIRPNRHVANIVEKLREVKLSPEGQKVDHCARHGEKLLLFCQEDGKVICWLCERSQEHRGHHTFLTEEVAREYQVKLQAALEMLRQKQQEAEELEADIREEKASWKTQIQYDKTNVLADFEQLRDILDWEESNELQNLEKEEEDILKSLTNSETEMVQQTQSLRELISDLEHRLQGSVMELLQGVDGVIKRTENVTLKKPETFPKNQRRVFRAPDLKGMLEVFRELTDVRRYWVDVTVAPNNISCAVISEDKRQVSSPKPQIIYGARGTRYARGTRYQTFVNFNYCTGILGSQSITSGKHYWEVDVSKKTAWILGVCAGFQPDAMCNIEKNENYQPKYGYWVIGLEEGVKCSAFQDSSFHTPSVPFIVPLSVIICPDRVGVFLDYEACTVSFFNITNHGFLIYKFSHCSFSQPVFPYLNPRKCGVPMTLCSPSS [human TRIM5α, 6-codon duplication at 331] | 0.27 ± 0.34 |
| MASGILVNVKEEVTCPICLELLTQPLSLDCGHSFCQACLTANHKKSMLDKGESSCPVCRISYQPENIRPNRHVANIVEKLREVKLSPEGQKVDHCARHGEKLLLFCQEDGKVICWLCERSQEHRGHHTFLTEEVAREYQVKLQAALEMLRQKQQEAEELEADIREEKASWKTQIQYDKTNVLADFEQLRDILDWEESNELQNLEKEEEDILKSLTNSETEMVQQTQSLRELISDLEHRLQGSVMELLQGVDGVIKRTENVTLKKPETFPKNQRRVFRAPDLKGMLEVFRELTDVRRYWVDVTVAPNNISCAVISEDKRQVSSPKPQIIYGARGTRYGTRYQTFVNFNYCTGILGSQSITSGKHYWEVDVSKKTAWILGVCAGFQPDAMCNIEKNENYQPKYGYWVIGLEEGVKCSAFQDSSFHTPSVPFIVPLSVIICPDRVGVFLDYEACTVSFFNITNHGFLIYKFSHCSFSQPVFPYLNPRKCGVPMTLCSPSS [human TRIM5α, 4-codon duplication at 333] | 0.34 ± 0.052 |
| MASGILVNVKEEVTCPICLELLTQPLSLDCGHSFCQACLTANHKKSMLDKGESSCPVCRISYQPENIRPNRHVANIVEKLREVKLSPEGQKVDHCARHGEKLLLFCQEDGKVICWLCERSQEHRGHHTFLTEEVAREYQVKLQAALEMLRQKQQEAEELEADIREEKASWKTQIQYDKTNVLADFEQLRDILDWEESNELQNLEKEEEDILKSLTNSETEMVQQTQSLRELISDLEHRLQGSVMELLQGVDGVIKRTENVTLKKPETFPKNQRRVFRAPDLKGMLEVFRELTDVRRYWVDVTVAPNNISCAVISEDKRQVSSPKPQIIQTFVNFNYCTGILGSQSITSGKHYWEVDVSKKTAWILGVCAGFQPDAMCNIEKNENYQPKYGYWVIGLEEGVKCSAFQDSSFHTPSVPFIVPLSVIICPDRVGVFLDYEACTVSFFNITNHGFLIYKFSHCSFSQPVFPYLNPRKCGVPMTLCSPSS [human TRIM5α, 8-codon deletion at 329] | 1.14 ± 1.6 |
| MASGILVNVKEEVTCPICLELLTQPLSLDCGHSFCQACLTANHKKSMLDKGESSCPVCRISYQPENIRPNRHVANIVEKLREVKLSPEGQKVDHCARHGEKLLLFCQEDGKVICWLCERSQEHRGHHTFLTEEVAREYQVKLQAALEMLRQKQQEAEELEADIREEKASWKTQIQYDKTNVLADFEQLRDILDWEESNELQNLEKEEEDILKSLTNSETEMVQQTQSLRELISDLEHRLQGSVMELLQGVDGVIKRTENVTLKKPETFPKNQRRVFRAPDLKGMLEVFRELTDVRRYWVDVTVAPNNISCAVISEDKRQVSSPKPQIIYGARGTRYQTFVFVNFNYCTGILGSQSITSGKHYWEVDVSKKTAWILGVCAGFQPDAMCNIEKNENYQPKYGYWVIGLEEGVKCSAFQDSSFHTPSVPFIVPLSVIICPDRVGVFLDYEACTVSFFNITNHGFLIYKFSHCSFSQPVFPYLNPRKCGVPMTLCSPSS [human TRIM5α, 2-codon duplication at 339] | 0.3511 ± 0.0014 |
| MASGILVNVKEEVTCPICLELLTQPLSLDCGHSFCQACLTANHKKSMLDKGESSCPVCRISYQPENIRPNRHVANIVEKLREVKLSPEGQKVDHCARHGEKLLLFCQEDGKVICWLCERSQEHRGHHTFLTEEVAREYQVKLQAALEMLRQKQQEAEELEADIREEKASWKTQIQYDKTNVLADFEQLRDILDWEESNELQNLEKEEEDILKSLTNSETEMVQQTQSLRELISDLEHRLQGSVMELLQGVDGVIKRTENVTLKKPETFPKNQRRVFRAPDLKGMLEVFRELTDVRRYWVDVTVAPNNISCAVISEDKRQVSSPKPQIIYGARGTRYQTFVNFRYQTFVNFNYCTGILGSQSITSGKHYWEVDVSKKTAWILGVCAGFQPDAMCNIEKNENYQPKYGYWVIGLEEGVKCSAFQDSSFHTPSVPFIVPLSVIICPDRVGVFLDYEACTVSFFNITNHGFLIYKFSHCSFSQPVFPYLNPRKCGVPMTLCSPSS [human TRIM5α, 8-codon duplication at 335] | 0.547 ± 0.16 |
